According to PubChem BioAssay AID1956 (SRMLSC, 2009):
Some of the results follow. Shown are side measurements of this screen, not its main read-out; they come without a call.

Experiment: compounds boosting herpes simplex virus growth – fold increase, host cell viability (AID 1956); note: tested in PC3 cells
Details: HSV replication augmentation in cells; fold increase: measured here: primary screen fold increase 10 uM, at 10 µM, stronger effect = higher value; viability: measured here: host cell viability series, at 25 µM, stronger effect = lower value
Work on Nc1ccc2c(c1)Cc1cc([N+](=O)[O-])ccc1-2 yielded a fold increase of 1.52 and a viability of 97%.
For O=S(=O)([O-])CCC[n+]1c(/C=C\Nc2ccccc2)oc2ccc(-c3ccccc3)cc21, the fold increase was 9.77 and the viability was 92.7%.
With C/C(=N\NC(=O)C(=O)Nc1ccc(C)c(Cl)c1)c1ccncc1 the fold increase was 1.45 and the viability was 95%.
CN(CC(O)COc1ccc(S(=O)(=O)N2CCOCC2)cc1Cl)C1CCCCC1 (configuration not stated) gave a fold increase of 1.32.
COc1cc(/C=C2\SC(=N)N(c3ccc(F)cc3)C2=O)ccc1O gave a fold increase of 2.05 and a viability of 81.3%.
CC1=CN2C(=N)/C(=C/c3ccc([N+](=O)[O-])o3)C(=O)N=C2S1 showed a fold increase of 2.72 and a viability of 95%.
CCCCCCc1cc2cc(C(=O)Nc3ccccc3OC)c(=O)oc2cc1O showed a fold increase of 1.45.
Compound COc1ccc(CCc2nnc(CCC(=O)N(C)Cc3ccnc4ccccc34)o2)cc1 has a fold increase of 1.33 and a viability of 27.3%.
For Cc1cc2cc(C=C(C#N)C#N)c(Cl)nc2cc1C, the fold increase was 1.56 and the viability was 93.1%.
Work on CC1=Nc2ccc3ccccc3c2C1(C)C yielded a fold increase of 2.69 and a viability of 94.3%.
With Cc1cc(=O)[nH]c(SCC(=O)/C=C2\N(C)c3ccccc3C2(C)C)n1 the fold increase was 1.49 and the viability was 58.5%.
Cc1cc[n+](-c2[nH]c(=O)sc2/C=N/NC([S-])=Nc2ccccc2)cc1C gave a fold increase of 3.3.
O=C(c1ccco1)[C@@H]1[C@@H]2C(=O)N(c3ccc(Br)cc3)C(=O)[C@@H]2C2c3ccccc3C=CN21 (some centres not stated) showed a fold increase of 1.23.
Compound O=C1/C(=C/c2ccc(O)cc2)SC(=S)N1Cc1cccnc1 has a fold increase of 4.62 and a viability of 94.6%.
Compound Nc1cccnc1Sc1cc(Cl)c(Cl)cc1Cl has a fold increase of 1.34 and a viability of 104%.
O=S(=O)(c1cc(Cl)ccc1Br)N1CCCCC1 gave a fold increase of 1.45 and a viability of 89.2%.
Work on COc1ccccc1NC(=O)CCC(=O)OCc1ccc([N+](=O)[O-])cc1 yielded a fold increase of 1.32.
Work on CCc1ccc(C2N(c3ccc(OC)cc3)C(=O)C3CCCN32)cc1 (configuration not stated) yielded a fold increase of 1.37 and a viability of 91.4%.
For COc1ccc2o/c(=N/NC(=O)c3cccs3)c(C(N)=O)cc2c1, the fold increase was 1.77 and the viability was 92.2%.
Compound O=C(c1cccnc1)N1CCN(C/C=C/c2ccccc2)CC1 has a fold increase of 1.57 and a viability of 92.5%.
For CCN(CC)c1ccc(/C=C(/C#N)C(=O)NC(C)C)o1, the fold increase was 1.67.
In the case of COC(=O)c1cnc(NNS(=O)(=O)c2ccc(Cl)cc2)nc1C(F)(F)F, the fold increase is reported as 1.62 and the viability is reported as 99.4%.
Work on Cc1ccccc1C(=O)Nc1ccc2c(C#N)c3nc4ccccc4nc3n2c1 yielded a fold increase of 2.42.
With COC(=O)C1C2C=CC3(CN(c4cccc(Cl)c4)C(=O)C13)O2 (configuration not stated) the fold increase was 1.37 and the viability was 103%.
COC(=O)C1(C)NC(=O)c2ccccc2N1 (configuration not stated) gave a fold increase of 1.34 and a viability of 91.8%.
With CC(=O)Oc1ccc(OC(C)=O)c2c1CC(C)=C(C)C2 the fold increase was 1.68 and the viability was 95.6%.
Cc1cc2nc3c(=O)n(C4CCCCC4)c(=O)[nH]c3nc2cc1N gave a fold increase of 5.6.
With CC1=CC(=C(C#N)c2nc3ccccc3s2)C=C(C)N1c1ccc(F)cc1F the fold increase was 1.45.
CC(=O)Nc1ccc(NS(=O)(=O)c2cccc3ccccc23)cc1 gave a fold increase of 1.34 and a viability of 96.7%.
Compound O=C(Cc1cccc2ccccc12)Nc1ccc(-c2cc3ccccc3oc2=O)cc1 has a fold increase of 1.26.
In the case of CC(C)Oc1ccc(C2C(C#N)=C(N)Oc3c2oc(CO)cc3=O)cc1 (configuration not stated), the fold increase is reported as 1.5 and the viability is reported as 92.1%.
Compound O=C(NC1CCN(C(=O)c2cccs2)CC1)c1ccccc1 has a fold increase of 1.49 and a viability of 98.2%.
With C/C(=N\NC(=O)CNc1cccc2ccccc12)c1ccccc1 the fold increase was 1.36 and the viability was 96.6%.
Work on CCC(CCC(=O)Nc1ccc(S(N)(=O)=O)cc1)C(=O)O (configuration not stated) yielded a fold increase of 1.37 and a viability of 99.7%.
With Cc1ccccc1NC1=C(C(=O)c2ccccc2)N(C)S(=O)(=O)c2ccccc21 the fold increase was 1.12.
With O=C(Nc1ccccc1F)C1CCCN(S(=O)(=O)c2cccc3cccnc23)C1 (configuration not stated) the fold increase was 1.44 and the viability was 91.6%.
Cc1ccc(C(=O)Nc2ccccc2C(=O)N2CCCCCC2)cc1 gave a fold increase of 1.36 and a viability of 98.9%.
Compound Cn1c(/C(C#N)=C/c2ccc(-c3ccc(S(N)(=O)=O)cc3)o2)nc2ccccc21 has a fold increase of 4.12 and a viability of 79%.
With CN(C)c1ccc(/C=C(/C(=O)c2ccc(Cl)cc2Cl)n2cncn2)cc1 the fold increase was 3.58 and the viability was 72%.
Work on CN(C)c1ccc(C(CC(=O)c2ccccc2)C2CCCCC2=O)cc1 (configuration not stated) yielded a fold increase of 1.52 and a viability of 92%.
CCOC(=O)C1=C(Cc2ccc(F)cc2)C(=O)c2ccccc2C1=O showed a fold increase of 5.31 and a viability of 77.6%.
For Cc1[nH]c2ccccc2c1C(=O)C(=O)N1CC=C(c2ccccc2)CC1, the fold increase was 6.35 and the viability was 79.2%.
COC(=O)c1scc(C)c1N/N=C(\C)c1cc(F)c(Cl)cc1F showed a fold increase of 1.41 and a viability of 92.9%.
With COc1ccc(S(=O)(=O)NNC(=O)C(=O)NNc2ccccn2)cc1 the fold increase was 1.34 and the viability was 106%.
For CN(CC1CCOCC1)C(=O)CC1C(=O)NCCN1CC1CCCCC1 (configuration not stated), the fold increase was 1.51 and the viability was 105%.
Work on COc1cccc(C2C=C(c3ccc(Br)s3)Nc3ncnn32)c1OC (configuration not stated) yielded a fold increase of 2.99.
COc1ccc(-n2c(COc3ccc4ccccc4c3)nnc2SCC(=O)NCc2ccco2)cc1 gave a fold increase of 1.36 and a viability of 93.9%.
Compound CCc1ccc(/C=C2\CN(CC)Cc3c2nc2ccccc2c3C(=O)O)cc1 has a fold increase of 1.77 and a viability of 103%.
For CN(CC(CC(=O)Nc1nncs1)c1ccccc1)S(=O)(=O)c1ccccc1 (configuration not stated), the fold increase was 1.53 and the viability was 88.7%.
CC1(C)Cc2c(c(-c3ccco3)nc3sc4c(NCC5CCCO5)ncnc4c23)CO1 (configuration not stated) showed a fold increase of 1.4 and a viability of 89.8%.
Compound COc1ccc(Cn2c(C)c(C)c(C#N)c2NC(=O)Nc2cccc(Cl)c2)cc1 has a fold increase of 1.38.
Work on CCCC[n+]1ccn(C2=C([O-])c3ccccc3C(=O)/C2=N\S(=O)(=O)c2ccc(Br)cc2)c1 yielded a fold increase of 1.99 and a viability of 99.7%.
CNC(=O)NC1CCCCc2sccc21 (configuration not stated) gave a fold increase of 1.44 and a viability of 100%.
CC(=O)C1=C(C)NC(SCc2cccc3ccccc23)=C(C#N)C1c1ccco1 (configuration not stated) showed a fold increase of 1.35.
CC(=O)Nc1cccc(C2=CC(c3ccco3)n3ncnc3N2)c1 (configuration not stated) gave a fold increase of 2.92 and a viability of 95.9%.
Compound N#CC1=C(N)n2c(s/c(=C\c3cccs3)c2=O)=C(C#N)C1c1cccs1 (configuration not stated) has a fold increase of 2.61.
Work on O=C(O)c1ccccc1N/N=C/c1c(Sc2nnnn2-c2ccccc2)nc2ccccn2c1=O yielded a fold increase of 10 and a viability of 101%.
In the case of Cc1cc(O)c(C(C)C)cc1N=Nc1ccccc1C(=O)O, the fold increase is reported as 1.4 and the viability is reported as 95.4%.
Cc1ccc(NS(=O)(=O)c2ccc(Br)cc2)nc1 gave a fold increase of 1.65 and a viability of 87.7%.
Work on CCCOc1ccc(C(C)=O)cc1CSc1nc(O)cc(=O)[nH]1 yielded a fold increase of 1.2.
For C=CC1=C(C(=O)O)N2C(=O)C(NC(=O)Cc3ccccc3)C2SC1 (configuration not stated), the fold increase was 1.38 and the viability was 97.1%.
Cc1sc2ncnc(N=Nc3c(O)[nH]c4ccccc34)c2c1C gave a fold increase of 1.49 and a viability of 96.1%.
O=c1[nH]c2cc(Br)cnc2nc1/C=C(\O)c1ccc(F)cc1 gave a fold increase of 2.45 and a viability of 90.3%.
With COc1cc(C=C(c2nc3ccccc3s2)c2nc3ccccc3s2)ccc1O the fold increase was 2.36 and the viability was 95.7%.
With O=C(Cc1cccs1)Nc1nc(-c2cccnc2)cs1 the fold increase was 1.32.
In the case of COc1ccccc1-c1nn2c(C(F)(F)F)nnc2s1, the fold increase is reported as 1.47 and the viability is reported as 96.4%.
With COc1ccccc1NS(=O)(=O)c1cc([N+](=O)[O-])ccc1N/N=C/c1c(C)[nH]c2ccccc12 the fold increase was 1.56 and the viability was 90.9%.
For O=C(N/N=C/c1sc(N2CCOCC2)nc1-c1ccccc1)c1cccc(S(=O)(=O)N2CCCC2)c1, the fold increase was 1.47 and the viability was 31.1%.
Work on COc1cc(/C=C2\SC(=S)N(NC(=O)c3ccncc3)C2=O)ccc1O yielded a fold increase of 8.18 and a viability of 96.1%.
Compound COc1ccc(C(=O)/C=C2/Sc3cc4c(cc3N2C)OCO4)cc1 has a fold increase of 1.34 and a viability of 91.5%.
For CN1CCc2c(sc(NC(=O)c3ccc(S(=O)(=O)N4CCc5ccccc54)cc3)c2C(N)=O)C1, the fold increase was 1.38 and the viability was 94%.
Compound CCCCCCCCC(=O)N/N=C/c1cccc(Br)c1 has a fold increase of 1.47 and a viability of 94.2%.
Work on N#Cc1ccc(-c2ccco2)nc1SCC(=O)c1ccc(Cl)cc1 yielded a fold increase of 1.57 and a viability of 90%.
In the case of COc1cc(OC)c(-c2nn3c(-c4ccco4)nnc3s2)cc1OC, the fold increase is reported as 1.32.
CCOC(=O)c1c(NC(=S)Nc2cccc(C)c2)sc2c1CC(C)(C)SC2 showed a fold increase of 1.5 and a viability of 103%.
For COc1ccc(C(=O)Nn2c(SCC(=O)NCc3ccccc3)nc3ccccc3c2=O)cc1, the fold increase was 1.47 and the viability was 102%.
O=C(N/C(=C/c1ccco1)C(=O)N1CCc2ccccc21)c1ccco1 gave a fold increase of 1.37 and a viability of 102%.
With O=c1c2ccccc2c(C=Nc2ccccc2O)c(O)n1-c1nccs1 the fold increase was 1.37 and the viability was 101%.
For Cn1cc(/C=C2\SC(=S)N(NC(=O)c3cccc(Cl)c3)C2=O)c2ccccc21, the fold increase was 1.62.
With COC(=O)C1=C(C(=O)OC)C(c2cc(Cl)ccc2O)c2sc(=O)[nH]c2S1 (configuration not stated) the fold increase was 1.43 and the viability was 98.6%.
Compound Nc1ccc2nc3c(=O)n(C4CCCCC4)c(=O)[nH]c3nc2c1 has a fold increase of 17.6.
With COc1ccc2ccccc2c1C(O)c1nccn1C (configuration not stated) the fold increase was 2.98 and the viability was 90.7%.
With CC(C)c1ccc(C2C3CSCC=C3C(C#N)=C(N)C2(C#N)C#N)cc1 (configuration not stated) the fold increase was 1.47 and the viability was 81.5%.
Work on CCCN1CCN(CCCNC(=O)c2cc3c(=O)n(C)c4ccccc4c3n2C)CC1 yielded a fold increase of 1.48 and a viability of 83.2%.
For COc1ccc(C2OC34CCCCC3C(C#N)(C#N)C2(C#N)C(=N)O4)cc1 (configuration not stated), the fold increase was 1.33 and the viability was 102%.
In the case of C/C(=N\NC(=S)NCc1ccccc1)c1ccco1, the fold increase is reported as 1.32.
In the case of COc1ccc(OC)c(NC(=S)NCCC(c2ccccc2)c2ccccc2)c1, the fold increase is reported as 1.38.
Work on Cc1ccc(Cn2c(/C=C/c3ccco3)nc3ccccc32)cc1 yielded a fold increase of 1.45 and a viability of 72.9%.
CC(=Nc1ccccc1)c1sc2ccccc2c1O showed a fold increase of 1.75 and a viability of 94.4%.
Work on O=C1c2ccccc2-c2cccc(NS(=O)(=O)c3ccc(C(F)(F)F)cc3)c21 yielded a fold increase of 1.79 and a viability of 103%.
With CC(=O)Cc1cc(O)c2ccccc2c1OC(=O)c1ccccc1 the fold increase was 1.59 and the viability was 73%.
With Cc1nc2cc(NC(=O)CSc3nc4c(C)cccc4cc3C#N)ccc2s1 the fold increase was 2.33 and the viability was 70%.
In the case of CC(C)=CCN1CCN(Cc2cnc(N3CCOCC3)s2)CC1CCO (configuration not stated), the fold increase is reported as 1.46 and the viability is reported as 102%.
CCCNC(=O)Cn1c(=O)/c(=C\c2ccc(-c3ccc([N+](=O)[O-])cc3)o2)s/c1=C\C(=O)C(C)(C)C showed a fold increase of 6.98 and a viability of 83.3%.
CN(C)c1ccc(/C=C/C(=O)c2cc(Cl)ccc2O)cc1 gave a fold increase of 2.47.
